Laboratory results published in PubChem BioAssay AID2147 (National Center for Advancing Translational Sciences (NCATS), 2009).
Hit rate of the full screen: of about 230,000 compounds, about 3,600 (1.6%) were called active. Inconclusive means that the source gave no clear call. Such entries were picked first, then a sample of the others. Calls follow the shape of the dose curve; as a rule, active = well fitted inhibition curve with a large enough effect (not every such curve was filed as active); inconclusive = small, poorly fitted or top-dose-only effect, or another doubt; inactive = no such curve, though single readings can be large or run the other way. Where the call is inconclusive, the potency comes from a doubtful curve fit.

Each compound was assayed against Lysine-specific demethylase 4E (Homo sapiens) (UniProt B2RXH2) (assay: qHTS Assay for Inhibitors of Human Jumonji Domain Containing 2E (JMJD2E)). Conditions: JMJD2E catalytic domain, FDH-coupled NADH fluorescence (FDH is formaldehyde dehydrogenase); series mostly up to 57.1 µM; activity change, negative = inhibition: at the top concentration.
UniProt B2RXH2, sequence (B2RXH2 whole entry, looked up, the tested form may be a part): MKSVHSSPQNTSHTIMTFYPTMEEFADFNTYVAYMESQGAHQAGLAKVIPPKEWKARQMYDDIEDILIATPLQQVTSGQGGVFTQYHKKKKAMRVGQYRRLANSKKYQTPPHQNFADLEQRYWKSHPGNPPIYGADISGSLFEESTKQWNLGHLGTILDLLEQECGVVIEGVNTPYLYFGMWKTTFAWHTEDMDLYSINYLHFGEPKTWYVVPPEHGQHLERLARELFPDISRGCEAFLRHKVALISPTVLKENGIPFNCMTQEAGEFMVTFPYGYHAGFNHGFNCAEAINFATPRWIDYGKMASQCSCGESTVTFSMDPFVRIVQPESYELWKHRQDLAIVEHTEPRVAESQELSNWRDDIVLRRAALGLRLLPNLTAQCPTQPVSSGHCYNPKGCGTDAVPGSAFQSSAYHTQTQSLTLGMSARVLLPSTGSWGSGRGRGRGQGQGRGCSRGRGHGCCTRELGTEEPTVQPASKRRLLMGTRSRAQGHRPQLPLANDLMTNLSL
Also: nearly all actives have a fitted effect of over 50% in size.
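For activity change, negative = inhibition in this document: 0% = wells with enzyme and -100% = buffer wells without enzyme.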
Potency is read from the fitted curve at half-maximal effect; tags tell the direction and shape of the fitted curve.

| SMILES | Potency | activity change, negative = inhibition |
| --- | --- | --- |
| COc1cccc(/C=N/NC(=O)c2ccc(=O)n(C)c2)c1O | active: 11.2 µM | – |
| Cc1nc(N2CCN(S(=O)(=O)c3ccccc3)CC2)c2cc(-c3ccccc3)sc2n1 | inconclusive: 7.94 µM [inhibitor, full curve] | – |
| CCn1cc(C(=O)O)c(=O)c2cc(F)c(N3CCN(C(=S)NC(=O)c4ccccc4F)CC3)cc21 | inconclusive: 25.1 µM [inhibitor, single point] | – |
| Cc1cc(=O)[nH]c(N/N=C/c2cc(C)n(-c3ccccc3)c2C)n1 | inconclusive: 28.2 µM [inhibitor, single point] | – |
| CCOC(=O)N1CCN(c2nc3ccccc3nc2C(C#N)S(=O)(=O)c2ccc(C)cc2)CC1 (stereo not given) | inconclusive: 25.1 µM [inhibitor, single point] | – |
| C=CCSC1=C(C#N)C(c2ccccc2)CC(=O)N1 (stereo not given) | – | inactive: 1.08% |
| O=C(Nc1ccc(F)cc1)c1cc2c(s1)CCCC2 | – | inactive: 0.588% |
| COCCNc1nc(C)nc2c1nc(-c1ccccc1)n2C1CCN(Cc2ccccc2)C1 (stereo not given) | inconclusive: 28.2 µM [inhibitor, partial curve] | – |
| CC(=O)NN=C1CCC(c2ccccc2)CC1 (stereo not given) | – | inactive: 1.77% |
| CCOc1ccc(Nc2ncnc3c2cnn3-c2ccccc2)cc1 | inconclusive: 39.8 µM [inhibitor, single point] | – |
| O=Cc1cc(N=Nc2cccc(C(=O)O)c2)ccc1O | – | inactive: -25.4% |
| S=c1[nH]nc(C2CCCCC2)n1/N=C/c1ccccn1 | – | inactive: -1.76% |
| COC(=O)C1(C)CN(S(=O)(=O)c2ccc(C)cc2)c2cc(OC)ccc2C1=O (stereo not given) | inconclusive: 28.2 µM [inhibitor, partial curve] | – |
| CCC(C)c1ccc(NC(=O)CN(C)CC(=O)Nc2cccc(OC)c2)cc1 (stereo not given) | inconclusive: 28.2 µM [inhibitor, single point] | – |
| Cc1nc(-c2ccc(S(=O)(=O)NCc3ccccn3)s2)cs1 | inconclusive: 39.8 µM [inhibitor, single point] | – |
| CC(=O)c1ccc(NC(=O)c2ccc(NC(=O)CCS(=O)(=O)c3cccs3)cc2)cc1 | inconclusive: 35.5 µM [inhibitor, single point] | – |
| CCOC(=O)c1sc(-c2ccc(OC)cc2)cc1N | inconclusive: 35.5 µM [inhibitor, single point] | – |
| CCOC(=O)c1ccc(N=c2ssnc2Cl)cc1 | inconclusive: 17.8 µM [inhibitor, single point] | – |
| CCCCNC(=O)c1cc2c(=O)n3cccc(C)c3nc2n(CCN2CCOCC2)c1=N | inconclusive: 28.2 µM [inhibitor, partial curve] | – |
| COCCNC(=O)c1ccc(NC(C)=O)cc1 | – | inactive: 2.13% |
